The labels stand for the following.
B1: LINE1-mini (parent)
chain: GGCAGAGCUCAACACAGCGUGGCAAAGUGGCUGUGGCUAGACUGCC

The source gives no read counts; variants with many changes may rest on few reads.

This series covers variants of B1. Kind of series: self-cleavage, relative activity (ratio to wild type); higher = more cleavage; in vitro, sequencing; the parent is a self-cleaving ribozyme.
On to GGAAGAGCUCAACACCGUGUGGCAAAUUGGCUGUGGCUAGGCUGCC [C3A A16C C18U G27U A41G], for which the self-cleavage came out at 0.06.
With GGAAGAGCUCAACGCAGCGUGGCAAAGUGGCUGUGGCUACACUGUC [C3A A14G G40C C45U] the figure was 0.11.
Take GGAAGAGCUCAACUCAGCGUGGCAAAGUGGCUGUGGCCAGACUCCC [C3A A14U U38C G44C]: the self-cleavage came out at 0.2.
With GGAAGAGCUCAACACCGCGUGCCAAAGUGGCUGUGGCUAGACUGCC [C3A A16C G22C], the self-cleavage worked out at 0.29.
Take GGAAGAGCUCAACACCGCGUGGCAAAGAGGCUGUGGCUAGACUGCC [C3A A16C U28A]: the self-cleavage was found to be 0.56.
With GGAAGAGCUCAACACCGCGUGGCAAAGGGGCUGUGGCUAGACUGCC [C3A A16C U28G] the figure was 0.19; with GGAAGAGCUCGACACAGCGUGGCAAAGUGUCUGUGGCUAGACUGCC [C3A A11G G30U], 0.04; with GGAAGAGCUCAACACGGCCUGGCAAAGUGGUUGUGGCUAGACUGCC [C3A A16G G19C C31U], 0.05.
Consider GGAAGAGCUCUAUACAGCGUUGCAAAGUGGUUGUGGCUAGACUUCC [C3A A11U C13U G21U C31U G44U], for which the self-cleavage was found to be 0.03.
Consider GGAAGAGCUCUACACAGCGUGGCAAAGUGGCUUUGGCUAGACUGCC [C3A A11U G33U], for which the self-cleavage is 0.07.
On to GGAAGAGCUCAACUCAGCGUGGCAAAAUGGCUGUGGCUAGACUGCC [C3A A14U G27A], for which the self-cleavage is 0.13.
The value for GGAAGAGCUCACCAUAGCGUGUCAAAGUGGCUGUGGCCAGACUGCC [C3A A12C C15U G22U U38C] was 0.04; that for GGAAGAGCUCAUUUCAGCGUGGCAAAGUCGCUUUGGCUAGAGUGCC [C3A A12U C13U A14U G29C G33U C42G] was 0.07; that for GGAAGAGCUCAACGAAGUGUGGCAAAGUGUCUGUGGCUAGACUGCC [C3A A14G C15A C18U G30U] was 0.03.
With GGAAGAGCUCACCCCACCGUGGCAAAGUGGCUGUGGCUAGACUGCC [C3A A12C A14C G17C] the figure was 0.03; with GGAAGAGCUCACCACAGCGUGGCAAAUUGCCUGUGGCUAGACUGCC [C3A A12C G27U G30C], 0.01.
With GGAAGAGCUCAGCACAGCGUGGCAAAGUAGCUGUGGCUAGACUGCC [C3A A12G G29A] the figure was 0.08; with GGAAGAGCUCAACGCAGCGUGGCAAAGUGGCUGUGGGUGGACUGCC [C3A A14G C37G A39G], 0.7.
Regarding GGAAGAGCUCUAUACAGCGUGGCAAAGUGGCUGUGGCUAGACUGCC [C3A A11U C13U], the self-cleavage is 0.06.
The value for GGAAGAGCUCACCACAGCGUGGCAAUGUGGCUGUAGCUAGACUGCC [C3A A12C A26U G35A] was 0.03.
The value for GGAAGAGCUCAACGAAGCGUGGCAAAGUGGCUGUGGCUAGACUGCC [C3A A14G C15A] was 0.25; that for GGAAGAGCUCAUUACAGCGUGACAAAGUGGCUGUGGCUAGACUGCC [C3A A12U C13U G22A] was 0.07; that for GGAAGAGCUCAGCACAGCGUGGCAAAGUGGCUGUGGCUUGACUGAC [C3A A12G A39U C45A] was 0.01.
As to GGAAGAGCUCAGCACAGCGUUGCAAAGUGGCUGUGGCUAGACUGCC [C3A A12G G21U], the self-cleavage is 0.51.
The value for GGAAGAGCUCAGCACAGCGUGGUAAAGUGGUUGUGGCAAGGCUGCC [C3A A12G C23U C31U U38A A41G] was 0.44.
On to GGAAGAGCUCACCACAGCGUGGCAAAGUGGCAGUGAAUAGACUGCC [C3A A12C U32A G36A C37A], for which the self-cleavage is 0.05.
As for GGAAGAGCUCAGCCCAGCGUGGCAAAGUGGCUCUGGCUAGACUGCC [C3A A12G A14C G33C], the self-cleavage came to 0.07.
With GGAAGAGCUCAUAACAGCGUGGCAAAGUGGCUGUGUCUAGACUGCC [C3A A12U C13A G36U] the figure was 1.07.
Consider GGAAGAGCUCUACACAGCAUGGAAAAGGGGCUAUGGCUAGACUGCC [C3A A11U G19A C23A U28G G33A], for which the self-cleavage amounted to 0.02.
Take GGAAGAGCUCAACCCAGCGUGGCAAAGUAGCUAUGGCUAGACUGCC [C3A A14C G29A G33A]: the self-cleavage is 0.41.
With GGAAGAGCUCAACGUAGCGUGGCAAAGUGGCGGUGGCUAGACUGCC [C3A A14G C15U U32G] the figure was 0.08; with GGAAGAGCUCAUCGCAGCGUGGUAAAGUGGCUGUGGCUAGACUUCC [C3A A12U A14G C23U G44U], 1.13.
As for GGAAGAGCUCAGUACAGCGUGGCAAAGUGGCUGUGGCUAGACUGCU [C3A A12G C13U C46U], the self-cleavage worked out at 0.08.
With GGAAGAGCUCAUCACAGCGUGGCAAAGUCGCUAUGGCUAGACUGCC [C3A A12U G29C G33A], the self-cleavage came to 0.11.
Regarding GGAAGAGCUCAACACCGCGUUGGAAAGUGGCUGUGGCUAGACUGCC [C3A A16C G21U C23G], the self-cleavage was determined as 0.64.
The value for GGAAGAGCUCAACCCAGCGUGGCAAAGUGGCUGUGGCUCGACUGCC [C3A A14C A39C] was 0.33.
As to GGAAGAGCUCUACACAGCGUGGCAAAGUGGCUGUUGUUAGACUGCC [C3A A11U G35U C37U], the self-cleavage amounted to 0.05.
GGAAGAGCUCAACUCAGCGUGGCAAAGGGGCUGUGGCUUGAGUGCC [C3A A14U U28G A39U C42G]: the self-cleavage is 0.05.
The value for GGAAGAGCUCAACUCAGCGUGGCAAAGUGGCUGUGGCUAAACUGCC [C3A A14U G40A] was 0.09; that for GGAAGAGCUCAACUCAGCGUGGCAAAGUGGCUGUUGCUAACAUGCC [C3A A14U G35U G40A A41C C42A] was 0.02.
The value for GGAAGAGCUCACCACAGCGUGGCAAAGUGGCUGUGGCUAAACCGCC [C3A A12C G40A U43C] was 0.01; that for GGAAGAGCUCUACAUAGCGUGGAAAAGUGGCUGUGGCUAGACUGCC [C3A A11U C15U C23A] was 0.03.
For GGAAGAGCUCAACCAAGCGUGGCAAAGUGGCUGUGGCUAGACUGCC [C3A A14C C15A], the self-cleavage is 0.12.
For GGAAGAGCUCAACACCGCGUGGCAAGGUGGCUGUGGCUAGACUGCA [C3A A16C A26G C46A], the self-cleavage came out at 0.06.
In the case of GGAAGAGCUCUACAGAGCGUGGCAAAGUGGCUCAGGCUAGACUGCC [C3A A11U C15G G33C U34A], the self-cleavage was found to be 0.04.
As for GGAAGAGCUCGACACAGCGUGGCAAAUUGGUUGUGGCUAGACUGCC [C3A A11G G27U C31U], the self-cleavage was 0.02.
With GGAAGAGCUCACCACAGGGUGGCAAAGUGGCUGUGGCCAGACUGCC [C3A A12C C18G U38C] the figure was 0.05; with GGAAGAGCUCACCACAGCGUGGCAAAGUGGGUGUGGCUAGACUGCC [C3A A12C C31G], 0.02; with GGAAGAGCUCAACUCAGCGUGGCAAAGUGGCUAUGGUUAGACUACC [C3A A14U G33A C37U G44A], 0.1.
With GGAAGAGCUCUGCACAGCGUGGCAAAGUGGCUGUGGCUAGACUGCC [C3A A11U A12G] the figure was 0.03; with GGAAGAGCUCAACGCAGCGUGGCAAAGUGGCUGUGGCUAGAUUGCC [C3A A14G C42U], 0.17.
As for GGAAGAGCUCAACUCAGCGUCGCAAAGUGGCUGUGGCUAGACUGCC [C3A A14U G21C], the self-cleavage came out at 1.32.
Take GGAAGAGCUCUAGACAGUCUGGCAAGGUGGCUGUGGCUAGAGUGCC [C3A A11U C13G C18U G19C A26G C42G]: the self-cleavage was 0.
With GGAAGAGCUCAUCACAGUGUGGCAAAGUGGCUGUGGCUAUACUGCC [C3A A12U C18U G40U] the figure was 0.07.
GGAAGAGCUCAACCCAGCGUGGCAUAGUGGCUGUGGCUAGACUGCG [C3A A14C A25U C46G]: the self-cleavage stood at 0.08.
Take GGAAGAGCUCACCACAGCGUGGCAAAGUGGCUGUGGCUUAACUGCC [C3A A12C A39U G40A]: the self-cleavage was found to be 0.05.

(Values after the RNAGym collection of RNA variant scans (doi:10.7554/elife.90254).)
